Among all 360,000 compounds or so, about 520 (0.14%) were called active. The shares of active, inactive and inconclusive entries below differ from those in the screen. Calls follow the shape of the dose curve; as a rule, active = well fitted inhibition curve with a large enough effect; inconclusive = small, poorly fitted or top-dose-only effect; inactive = no such curve, though single readings can be large or run the other way. Potencies beside an inconclusive call are fits to weak or partial responses and may not hold up.
These compounds were tested against Rap guanine nucleotide exchange factor 3 (Homo sapiens) (UniProt O95398) (assay: qHTS for Antagonist of cAMP-regulated guanine nucleotide exchange factor 3 (EPAC1): primary screen). Details: EPAC1 GEF assay, Rap1b-BODIPY-GDP exchange fluorescence; activity change, negative = inhibition: at 115 µM (top of the series).
UniProt O95398, sequence (O95398 whole entry, looked up): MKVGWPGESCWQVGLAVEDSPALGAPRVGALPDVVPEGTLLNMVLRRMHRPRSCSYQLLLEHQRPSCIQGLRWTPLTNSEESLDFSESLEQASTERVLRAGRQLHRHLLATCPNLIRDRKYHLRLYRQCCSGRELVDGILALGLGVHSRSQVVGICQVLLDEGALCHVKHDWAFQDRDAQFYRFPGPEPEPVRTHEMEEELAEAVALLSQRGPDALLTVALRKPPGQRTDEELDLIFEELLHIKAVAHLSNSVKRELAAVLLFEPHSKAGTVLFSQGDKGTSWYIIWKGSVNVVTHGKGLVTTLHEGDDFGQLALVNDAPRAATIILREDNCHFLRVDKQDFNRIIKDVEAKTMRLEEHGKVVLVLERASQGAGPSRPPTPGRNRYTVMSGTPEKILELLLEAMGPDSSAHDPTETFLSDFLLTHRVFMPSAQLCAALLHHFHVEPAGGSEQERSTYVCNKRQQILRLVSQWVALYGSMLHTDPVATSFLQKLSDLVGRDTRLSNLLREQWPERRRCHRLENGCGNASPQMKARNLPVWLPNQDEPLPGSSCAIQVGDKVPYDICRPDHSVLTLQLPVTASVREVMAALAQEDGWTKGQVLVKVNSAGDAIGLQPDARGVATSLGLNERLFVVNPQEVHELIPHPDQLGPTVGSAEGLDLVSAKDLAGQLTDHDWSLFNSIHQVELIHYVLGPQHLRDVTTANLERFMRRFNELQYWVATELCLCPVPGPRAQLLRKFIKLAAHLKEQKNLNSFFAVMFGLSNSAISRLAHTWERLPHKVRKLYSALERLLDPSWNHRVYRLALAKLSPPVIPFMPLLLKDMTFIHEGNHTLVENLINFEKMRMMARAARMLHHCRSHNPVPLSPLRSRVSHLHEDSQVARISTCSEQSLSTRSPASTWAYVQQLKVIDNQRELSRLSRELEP
Also: nearly all actives have a fitted effect of over 50% in size.
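For activity change, negative = inhibition in this document: plate controls were vehicle for no effect and positive control for full effect.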
Potency is read from the fitted curve at half-maximal effect; tags tell the direction and shape of the fitted curve.

Potency, inconclusive:
COc1ccc(CNCCC(c2ccc(OC(C)C)cc2)c2ccccc2OC)cc1 (stereo not given) 63.1 µM [inhibitor, partial curve, poor fit], CN(Cc1ccc(CNC[C@H]2O[C@@H](n3cnc4c(N)ncnc43)[C@H](O)[C@@H]2O)o1)S(C)(=O)=O 100 µM [inhibitor, single point], N#Cc1nc(Cc2cccc3ccccc23)oc1N1CCC(C(N)=O)CC1 50.1 µM [inhibitor, partial curve], O=C(CCNc1n[nH]c(=O)[nH]c1=O)N/N=C\c1ccc(Br)cc1 89.1 µM [inhibitor, single point], Cc1ccccc1NC(=O)C1CCCN1/C=C/C(=O)C(F)(F)F (stereo not given) 50.1 µM [inhibitor, partial curve], COc1cc(CCC(=O)Nc2nnc(C)s2)cc(OC)c1OC 39.8 µM [inhibitor, single point], CCOc1cc(S(=O)(=O)Nc2ccc(CC)cc2)ccc1Cl 50.1 µM [inhibitor, partial curve], Cc1ccc(-n2nnnc2CSc2nnc(-c3ccc(O)cc3)o2)cc1 79.4 µM [inhibitor, single point], O=C(COC(=O)C1CCN(S(=O)(=O)c2ccc3c(c2)OCCO3)CC1)Nc1cc(C(F)(F)F)ccc1Cl 35.5 µM [inhibitor, full curve, poor fit], O=C(Nc1ccc(F)cc1F)C1(c2cccs2)CCOCC1 2.82 µM [inhibitor, full curve, poor fit], Cc1ncc([N+](=O)[O-])n1CCOC(=O)c1cc(Cl)cc(Cl)c1N 100 µM [inhibitor, single point], O=C(O)c1ccc(N2C(=O)/C(=C/c3ccc(-c4ccc([N+](=O)[O-])cc4)o3)C=C2c2ccccc2)cc1 35.5 µM [inhibitor, partial curve], C[C@H](NC(=O)c1nc[nH]c1C(=O)N[C@@H](C)C(=O)OC(C)(C)C)C(=O)OCc1ccccc1 79.4 µM [inhibitor, partial curve], COc1ccc(Br)cc1/C=C(\C(=O)O)c1ccc(S(=O)(=O)N2CCCCC2)s1 79.4 µM [inhibitor, partial curve], O=C(Nc1cccc(Cl)c1)c1ccc2ncsc2c1 35.5 µM [inhibitor, partial curve, poor fit], Cc1ccc(/C=C2\SC(=S)N(/N=C/c3cc([N+](=O)[O-])ccc3O)C2=O)o1 28.2 µM [inhibitor, full curve], COc1ccc([N+](=O)[O-])cc1NC(=O)C(C)Sc1nc(-c2ccccc2)cs1 (stereo not given) 56.2 µM [inhibitor, partial curve], COc1cc(/C=C2\CCCc3c2nc2ccccc2c3C(=O)O)cc([N+](=O)[O-])c1O 100 µM [inhibitor, single point], Cc1ccc(/C(O)=C2\C(=O)C(=O)N(CC(C)O)C2c2ccccn2)cc1 (stereo not given) 89.1 µM [inhibitor, single point], CCOc1ccc(N2CC(C(=O)NCC(=O)Nc3ccc(F)c(F)c3F)CC2=O)cc1 (stereo not given) 3.55 µM [inhibitor, full curve, poor fit], COc1ccc(OCC(=O)Nc2cc(NC(=O)c3ccco3)ccc2OC)cc1 35.5 µM [inhibitor, partial curve, poor fit], O=C(Nc1ccc(S(=O)(=O)N2CCCCC2)cc1)C1CC(=O)N(c2ccc(Cl)cc2)C1 (stereo not given) 50.1 µM [inhibitor, partial curve], O=C(Cn1cc(SCc2ccc(Cl)cc2)c2ccccc21)N1CCOCC1 17.8 µM [inhibitor, full curve], COc1ccc(Cl)cc1CC1(C)C(=O)Nc2c(Cl)cccc21 (stereo not given) 50.1 µM [inhibitor, partial curve], CCOc1ccc2oc(C(=O)OCC(=O)N3CCCC(C)C3)c(C)c2c1 (stereo not given) 2.82 µM [inhibitor, full curve, poor fit], COc1cc(OC)c2c(c1)S(=O)(=O)C(c1ccccc1)=C2N 79.4 µM [inhibitor, single point], CCc1nc2c(OCc3ccccc3C)cccn2c1N(C)C(=O)C(C)C 17.8 µM [inhibitor, full curve, poor fit], COc1ccc(/C=C2\SC(=S)N(NS(=O)(=O)c3ccc(C)cc3)C2=O)c(OC)c1 70.8 µM [inhibitor, partial curve, poor fit], CC(C)(Cc1ccc(O)cc1)NC(=O)CC(=O)N=Nc1c(O)[nH]c2cc(Br)ccc12 100 µM [inhibitor, single point], N#Cc1ccccc1NC(=O)COC(=O)c1c[nH]c2ccccc12 63.1 µM [inhibitor, single point], Cc1c(CC(=O)NCC(=O)O)c(=O)oc2cc3occ(-c4ccccc4)c3cc12 100 µM [inhibitor, single point], CCC(C)Nc1nnc(SCC(=O)c2c(N)n(C3CC3)c(=O)[nH]c2=O)s1 (stereo not given) 3.16 µM [inhibitor, full curve, poor fit], COc1cccc(CC2(CO)CCCN(Cc3ccc4c(c3)OCCO4)C2)c1 (stereo not given) 2.82 µM [inhibitor, full curve, poor fit], O=C(CSc1nnc(SCc2ccccc2)s1)N/N=C/c1c[nH]c2ccccc12 100 µM [inhibitor, single point], CCCCN(CCCC)S(=O)(=O)c1ccc(NC(=O)Cc2cccs2)cc1 89.1 µM [inhibitor, single point], OC1CCCN(CC(O)COC(c2ccccc2)c2ccccc2)C1 (stereo not given) 22.4 µM [inhibitor, partial curve], Cc1cccc(N2CC(C(=O)Nc3nnc(SCC(=O)NCC4CCCO4)s3)CC2=O)c1 (stereo not given) 89.1 µM [inhibitor, single point], COc1ccccc1C=C1SC(=S)NC1=O 79.4 µM [inhibitor, partial curve], CCCCN(CC)c1nc(N)c2c(N)nc(OCC)cc2c1C#N 79.4 µM [inhibitor, single point], Cc1cc(S(=O)(=O)Nc2c(C)nn(C)c2C)c(Cl)cc1Cl 89.1 µM [inhibitor, single point], O=C1N[C@@H](c2ccccc2)COC(=O)[C@@H](Cc2ccc(F)cc2)C/C=C\C[C@H]1CC(=O)N(CCO)Cc1ccccc1 44.7 µM [inhibitor, single point], COc1ccc2[nH]c(=O)c(CNc3ccccc3C)cc2c1 10 µM [inhibitor, partial curve], CCOc1ccccc1NC(=O)CCS(=O)(=O)c1ccc(Br)cc1 79.4 µM [inhibitor, single point], Cc1cccc(NC(=S)NC(C)CCc2ccccc2)c1 (stereo not given) 3.55 µM [inhibitor, full curve, poor fit], CC(=O)N1c2ccccc2Oc2cc3ccccc3cc21 8.91 µM [inhibitor, partial curve, poor fit], COc1ccc(C)cc1NC(=O)CCNS(=O)(=O)c1cccc(C(F)(F)F)c1 2.82 µM [inhibitor, full curve, poor fit], N/C(=N\OC(=O)c1ccc(Cl)c([N+](=O)[O-])c1)c1ccccn1 89.1 µM [inhibitor, single point]

Activity change, negative = inhibition, inconclusive:
Cc1ccnc(NS(=O)(=O)c2ccc(N3C(=O)Nc4ccccc4N3O)cc2)c1 -33.1% [inhibitor]

Activity change, negative = inhibition, inactive:
CCN1CCc2nc3ccccc3c(C(=O)Nc3ccc(NC(C)=O)cc3)c2C1 10.6%, COc1ccc(-c2cc(C(F)F)n3ncc(C(=O)N4CCc5ccccc54)c3n2)cc1 -17.7%, Cc1ccc(-c2cc(C(=O)N3CC(C)OC(C)C3)c3ccccc3n2)o1 (stereo not given) 1.13%, Oc1c(Br)cc(/C=N/Nc2nncc3ccccc23)cc1Br 1.91%, CC(=O)N1C(=O)/C(=C2\SC(=S)N(NS(=O)(=O)c3ccc(C)cc3)C2=O)c2ccccc21 4.19%, CN(C)c1ccc(Nc2ccc([N+](=O)[O-])cn2)cc1 -5.73%, O=C(O)c1ccc(COc2ccc(CO)cc2Cl)cc1 20.9%, O=c1[nH]nc(CNc2ccc(C(F)(F)F)cc2)c2ccccc12 -11.3%, COc1ccccc1C(=O)COC(=O)c1ccccc1O -1.47%, COc1ccc(C(=O)C2CCCN(C(=O)COc3ccc(C(C)=O)cc3)C2)cc1F (stereo not given) -13.9%, COc1ccc(NC(=O)c2ccc3[nH]c(=O)c(=O)[nH]c3c2)c(OC)c1 7.48%, CN(Cc1ccccc1)C(=O)[C@@H]1CCCN1S(=O)(=O)c1ccc(Cl)cc1 -0.544%, O=C(/C=C/c1cccc([N+](=O)[O-])c1)c1ccco1 -18.9%, O=C(O)c1ccccc1C(c1ccccc1)c1ccccc1O (stereo not given) -3.42%, S=C(Nc1ccccc1)Nc1nc2ccccc2n1CCOc1ccc(Br)cc1 0.271%, CCN(CC(=O)NCc1cccs1)C(=O)c1cccc(S(=O)(=O)N2CCc3ccccc32)c1 -21.9%, Cc1cn2c(-c3cccnc3)nnc2s1 -16.1%
